The supplement of paper PMC5919970
Counter-ions that a name gives are not always drawn. Whole data set: some 2,000 compounds, median “fractional viability relative to vehicle” near 0.91, cut for the lowest 2% near 0.045. The list shows a part of the results.

System: TYKNU
Assay: fractional viability relative to vehicle; TYKNU is a high-grade serous ovarian cancer line; higher = less growth inhibition
Conditions: 72 h
Procedure, shortened: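 Drug treatment lasted 72 h, with cells grown at 37 °C in 5% CO2 in RPMI 1640 supplemented with 10% FBS. Beforehand, TYKNU control cells or their lentiCRISPRv2 knockout derivatives had been seeded at 500 cells per well into drug-stamped 384-well plates carrying a ~2100-compound library at 2 or 10 μM, in duplicate. Viability came from Cell Titer Glo luminescence, with averaged duplicate treatment wells normalised to duplicate control wells in the same plate position.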

[1] = 2uM, genotype: DNM1L knockout (sgDNM1L #1)
[2] = 2uM, genotype: sgCTRLA1 (non-targeting control)
[3] = 10uM, genotype: DNM1L knockout (sgDNM1L #1)
[4] = 10uM, genotype: sgCTRLA1 (non-targeting control)

| Structure (SMILES) | fractional viability [1] | fractional viability [2] | fractional viability [3] | fractional viability [4] |
| --- | --- | --- | --- | --- |
| O=C1N=C(O)NC1(c1ccccc1)c1ccccc1 [Phenytoin sodium] | 1.03 | 1.09 | 0.864 | 1.04 |
| O=C1Nc2ccc(I)cc2/C1=C/c1cc(Br)c(O)c(Br)c1 | 0.939 | 1.07 | 0.891 | 0.926 |
| CN(C)c1cc(NC(=O)CNC(C)(C)C)c(O)c2c1C[C@H]1C[C@H]3[C@H](N(C)C)C(O)=C(C(N)=O)C(=O)[C@@]3(O)C(O)=C1C2=O [Tigecycline] | 0.988 | 1.28 | 0.927 | 1.08 |
| CCNc1nc(Nc2cc(F)c(C(=O)N3CCOCC3)cc2OC)ncc1C(F)(F)F | 0.839 | 0.914 | 0.522 | 0.542 |
| COc1cc(NS(=O)(=O)c2ccc(N)cc2)nc(OC)n1 [Sulphadimethoxine] | 1.27 | 1.1 | 0.921 | 1.02 |
| CC1(C)O[C@@H]2[C@@H](CO[C@@]3(COS(N)(=O)=O)OC(C)(C)O[C@@H]23)O1 [Topiramate] | 1.02 | 1.28 | 0.982 | 1.23 |
| O=C(c1ccc(F)cc1)N1CCC[C@H](c2nc(-c3ccc(F)cc3)no2)C1 | 1.02 | 1.14 | 0.634 | 1.06 |
| Cc1ccc(Cl)cc1N(CC(=O)Nc1c(F)cccc1F)S(C)(=O)=O | 0.71 | 0.883 | 0.706 | 0.794 |
| Cc1c(NC(=O)OC[C@@H]2COCCN2)cn2ncnc(Nc3ccc4c(cnn4Cc4cccc(F)c4)c3)c12 | 0.969 | 1.04 | 0.516 | 0.387 |
| Cc1ccc2nc(NCCN)c3ncc(C)n3c2c1 | 0.759 | 0.94 | 0.176 | 0.133 |
| COc1ccc(C[C@H](NC(=O)[C@H](C)NC(=O)CN2CCOCC2)C(=O)N[C@@H](Cc2ccccc2)C(=O)[C@@]2(C)CO2)cc1 | 0.0589 | 0.0514 | 0.0565 | 0.0416 |
| CC(C[N+](C)(C)C)OC(N)=O (stereo not given) [Bethanechol chloride] | 1.01 | 1.03 | 0.817 | 1.14 |
| NS(=O)(=O)Cc1noc2ccccc12 [Zonisamide] | 1.1 | 1.04 | 0.981 | 1.02 |
| COc1ccc2c(c1)C(=O)N(CCc1ccc(S(=O)(=O)NC(=O)NC3CCCCC3)cc1)C(=O)C2(C)C [Gliquidone] | 1.1 | 1.08 | 0.816 | 1 |
| C=CCc1ccc(O)c(-c2cc(CC=C)ccc2O)c1 [Magnolol] | 1.03 | 1.09 | 0.882 | 1.01 |
| Cc1cn([C@H]2C[C@H](N=[N+]=[N-])[C@@H](CO)O2)c(=O)[nH]c1=O [Zidovudine] | 0.952 | 1.08 | 0.851 | 0.907 |
| COc1ccc([C@@H]2Sc3ccccc3N(CCN(C)C)C(=O)[C@@H]2OC(C)=O)cc1 [Diltiazem HCl] | 0.98 | 1.15 | 0.814 | 1.13 |
| CC(=O)c1cc([N+](=O)[O-])c(Sc2ccc(F)cc2F)s1 | 1.02 | 1.12 | 0.288 | 0.5 |
| CCNC(=O)c1noc(-c2cc(C(C)C)c(O)cc2O)c1-c1ccc(CN2CCOCC2)cc1 | 0.279 | 0.236 | 0.273 | 0.233 |
| CC(=O)C1=C(O)C=C2Oc3c(C(C)=O)c(O)c(C)c(O)c3C2(C)C1=O (single isomer, unassigned; (+)) [(+)-Usniacin] | 1.07 | 1.14 | 0.984 | 1.17 |

| Structure (SMILES) | fractional viability [1] | fractional viability [2] | fractional viability [3] | fractional viability [4] |
| --- | --- | --- | --- | --- |
| CNCc1ccc(-c2[nH]c3cc(F)cc4c3c2CCNC4=O)cc1 | 0.971 | 1.05 | 0.928 | 1.02 |
| CCCNC(C)C(=O)Nc1c(C)csc1C(=O)OC (stereo not given) [Articaine HCl] | 1.06 | 1.01 | 0.891 | 1.02 |
| COc1ccc(CCc2nc3cc(-c4c(C)noc4C)ccc3n2C[C@H](C)N2CCOCC2)cc1Cl | 0.663 | 1.08 | 0.45 | 0.701 |
| O=C(O)c1cc2cccc([N+](=O)[O-])c2[nH]1 | 0.859 | 1.09 | 0.957 | 0.802 |
| O=C(O)c1ccc(-n2nc(-c3ccccc3O)nc2-c2ccccc2O)cc1 [Deferasirox] | 0.891 | 0.964 | 0.445 | 0.433 |
| NCCS [Cysteamine HCl] | 0.825 | 1.09 | 0.739 | 1.1 |
| COCCOC(=O)C1=C(C)NC(C)=C(C(=O)OC(C)C)C1c1cccc([N+](=O)[O-])c1 (stereo not given) [Nimodipine] | 0.892 | 1.1 | 0.799 | 1.01 |
| COc1c(C)c2c(c(O)c1C/C=C(\C)CCC(=O)OCCN1CCOCC1)C(=O)OC2 [Mycophenolate Mofetil] | 0.405 | 0.466 | 0.293 | 0.233 |
| CN1C(C(=O)Nc2ccccn2)=C(O)c2ccccc2S1(=O)=O [Piroxicam] | 0.997 | 1.12 | 1.11 | 0.993 |
| O=C(NCc1cccc(O)c1)Nc1nc(-c2ccncc2)cs1 | 0.821 | 1.08 | 0.688 | 0.914 |
| COC(=O)CCc1ccc(OCC(O)CNC(C)C)cc1 (stereo not given) [Esmolol HCl] | 0.975 | 1.09 | 0.829 | 1.07 |
| CC1(C)CC(=O)c2c(C(F)(F)F)nn(-c3ccc(C(N)=O)c(N[C@H]4CC[C@H](OC(=O)CN)CC4)c3)c2C1 | 0.976 | 1.16 | 0.981 | 1.09 |
| CC1(C)[C@@H](O)CC[C@]2(C)[C@H]3C(=O)C=C4[C@@H]5C[C@@](C)(C(=O)O)CC[C@]5(C)CC[C@@]4(C)[C@]3(C)CC[C@@H]12 [Enoxolone] | 0.93 | 1.05 | 0.839 | 0.924 |
| C[C@H]1COC2(CCN(c3nc(=O)c4cc(C(F)(F)F)cc([N+](=O)[O-])c4s3)CC2)O1 (racemic) [BTZ043 Racemate] | 1.15 | 1.05 | 1.08 | 0.947 |
| Oc1ccc(Cc2nc3c(Cc4ccccc4)nc(-c4ccc(O)cc4)cn3c2O)cc1 [Coelenterazine] | 0.928 | 1.05 | 0.977 | 0.839 |
| O=C(O)C[C@H](O)C[C@H](O)/C=C/c1c(C2CC2)nc2ccccc2c1-c1ccc(F)cc1 [Pitavastatin Calcium] | 0.329 | 0.391 | 0.182 | 0.216 |
| Cc1ccc(C)c(OCCCC(C)(C)C(=O)O)c1 [Gemfibrozil] | 0.919 | 1.04 | 0.894 | 1.01 |
| O=C(CCCN1CCC(O)(c2ccc(Cl)cc2)CC1)c1ccc(F)cc1 [Haloperidol] | 1.09 | 1.27 | 0.762 | 0.871 |
| COc1cc2c(cc1OC)[C@@H]1Cc3ccc(OC)c(OC)c3CN1CC2 [Rotundine] | 1.17 | 1.06 | 1.18 | 1.01 |
| C[C@H](NC(=O)CCc1nc2ccccc2c(=O)[nH]1)c1ccccc1 | 0.716 | 1.04 | 0.813 | 0.801 |

| Structure (SMILES) | fractional viability [1] | fractional viability [2] | fractional viability [3] | fractional viability [4] |
| --- | --- | --- | --- | --- |
| NCC(=O)CCC(=O)O [5-Aminolevulinic acid HCl] | 0.872 | 1.15 | 0.799 | 1.03 |
| CN1CCC(CNc2ccc3ncc(-c4cccc(OC(F)(F)F)c4)n3n2)CC1 [SGI-1776 free base] | 0.734 | 0.829 | 0.0544 | 0.0567 |
| Cc1ccc(Sc2ccccc2N2CCNCC2)c(C)c1 | 0.789 | 0.989 | 0.073 | 0.0798 |
| CNC(CC(=O)O)C(=O)O [NMDA (N-Methyl-D-aspartic acid)] | 0.929 | 0.971 | 0.812 | 1.02 |
| C[C@H](NC(=O)Cc1cc(F)cc(F)c1)C(=O)N[C@H](C(=O)OC(C)(C)C)c1ccccc1 | 0.935 | 1.17 | 0.856 | 1.1 |
| Cc1cc(Nc2ccc(NC(=O)c3ccc(Nc4ccnc5ccccc45)cc3)cc2)nc(N)n1 | 0.0197 | 0.0121 | 0.0121 | 0.00969 |
| CN1C2=CC(=O)/C(=N\NC(N)=O)C=C2CC1S(=O)(=O)O (stereo not given) [Carbazochrome sodium sulfonate (AC-17)] | 1.17 | 1.13 | 1.21 | 1.04 |
| C[C@]12CC[C@@H]3c4ccc(O)cc4CC[C@H]3[C@@H]1CC[C@@H]2OC(=O)CCC1CCCC1 [Estradiol Cypionate] | 1.09 | 1.14 | 0.417 | 0.805 |
| C[C@H](NC(=O)[C@@H](O)c1cc(F)cc(F)c1)C(=O)N[C@@H]1C(=O)N(C)c2ccccc2-c2ccccc21 | 1.19 | 1.12 | 0.924 | 0.966 |
| CC(C)N(CCCNC(=O)Nc1ccc(C(C)(C)C)cc1)C[C@H]1O[C@@H](n2ccc3c(N)ncnc32)[C@H](O)[C@@H]1O | 0.81 | 1.04 | 0.754 | 0.766 |
| O=c1cc(-c2ccc(O)c(O)c2)oc2cc(O)cc(O)c12 [Luteolin] | 1 | 1.11 | 0.934 | 0.982 |
| CC(=O)Nc1ccc(NC(=S)NC(=O)c2ccc(C(C)(C)C)cc2)cc1 [Tenovin-1] | 0.152 | 0.144 | 0.118 | 0.0954 |
| O=C(NOCCO)c1ccc2cncn2c1Nc1ccc(I)cc1F | 0.235 | 0.202 | 0.142 | 0.114 |
| CCOc1cc(C(=O)N2CCC(N3CCN(C)CC3)CC2)ccc1Nc1ncc2c(n1)N(C1CCCC1)c1ccccc1C(=O)N2C | 0.546 | 0.536 | 0.0647 | 0.0743 |
| O=C(Cc1ccc(-c2ccc(OCCN3CCOCC3)cc2)cn1)NCc1ccccc1 | 0.104 | 0.121 | 0.126 | 0.113 |
| Nc1ncn([C@H]2C[C@H](O)[C@@H](CO)O2)c(=O)n1 [Decitabine] | 1.06 | 0.994 | 0.942 | 0.772 |
| O=C1Cc2cc(CCN3CCN(c4nsc5ccccc45)CC3)c(Cl)cc2N1 [Ziprasidone HCl] | 1.32 | 1.16 | 0.961 | 0.903 |
| CC(C)/N=c1\cc2n(-c3ccc(Cl)cc3)c3ccccc3nc-2cc1Nc1ccc(Cl)cc1 [Clofazimine] | 1.31 | 1.19 | 1.12 | 1.14 |
| CC1CCc2c(N3CCC(O)CC3)c(F)cc3c(=O)c(C(=O)O)cn1c23 (stereo not given) [Nadifloxacin] | 1.15 | 1.21 | 0.868 | 1.02 |
| CCCN(CCc1cccs1)[C@H]1CCc2c(O)cccc2C1 [Rotigotine] | 0.851 | 1.11 | 0.615 | 1.01 |
